PubChem BioAssay AID485344 (National Center for Advancing Translational Sciences (NCATS), 2010)
“And” between values parts separate entries of the source, which are not always exact repeats. Equal entries are not always repeated. Among all 340,000 compounds or so, about 6,900 (2%) were called active. Cut-off read from the data, not from the text of the source: active = inhibition above about 30%; inactive = below that, where a call was filed. Only a part is listed here, and it is no random draw. The source gives no active or inactive call for entries shown without one.

Each compound was assayed against D(2) dopamine receptor (Homo sapiens) (UniProt P14416) (assay: HTS Assay for Allosteric Antagonists of the Human D2 Dopamine Receptor: Primary Screen for Antagonists). Settings: HEK293 TREx D2 cells, calcium flux, dopamine EC80; at 10 µM; stronger effect = higher value.
Outline: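 HEK293 T-REx D2 cells, tet-induced, calcium dye no-wash. Cpd pintool add, 180 s kinetic, then EC80 DA, 180 s kinetic. Ca flux read.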
Note: 0% is about no effect.

UniProt P14416, sequence (P14416 whole entry, looked up): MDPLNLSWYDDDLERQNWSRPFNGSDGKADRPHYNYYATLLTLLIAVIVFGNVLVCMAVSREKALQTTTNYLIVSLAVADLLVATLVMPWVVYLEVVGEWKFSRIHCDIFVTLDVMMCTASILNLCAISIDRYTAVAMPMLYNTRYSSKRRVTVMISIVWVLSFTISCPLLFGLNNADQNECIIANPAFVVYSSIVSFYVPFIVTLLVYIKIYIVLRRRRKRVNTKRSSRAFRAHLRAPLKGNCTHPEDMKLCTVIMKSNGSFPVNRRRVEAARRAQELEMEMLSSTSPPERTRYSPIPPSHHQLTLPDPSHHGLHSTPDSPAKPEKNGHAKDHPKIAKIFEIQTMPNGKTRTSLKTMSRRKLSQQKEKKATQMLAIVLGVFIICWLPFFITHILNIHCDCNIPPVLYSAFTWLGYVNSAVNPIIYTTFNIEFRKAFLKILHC

SMILES	inhibition
CCOC(=O)c1c(NC(=O)Nc2ccc(Cl)cc2)sc(C)c1C	active: 35.8%
COc1ccccc1CNC(=O)CSc1ncc2c(n1)-c1ccccc1N(Cc1ccc(C)cc1)S2(=O)=O	3.77%
COc1ccc(-c2noc(C3CC(=O)N(c4ccc(C)c(F)c4)C3)n2)c(OC)c1 (stereo not drawn)	-6.32%
CCc1nnc(SCc2ccc(F)cc2Cl)c2cc3sccc3n12	13.6%
Cc1ccc(C)c(NC(=O)C(C)n2c(=O)cc(C(F)(F)F)c3c(C)nn(C)c32)c1 (stereo not drawn)	0.623%
CC1CCC(NC(=O)c2ccc3c(c2)N(Cc2cccc(F)c2)C(=O)c2ccccc2S3)CC1 (stereo not drawn)	3.4%
CCc1ccc(CNC(=O)c2ccc3c(c2)nc2n3CCOC2)cc1	-9.57%
COc1ccc(NC(=O)C(=O)NCCc2ccccc2)cc1OC	-2.39%
CC(C)c1ccc(NC(=O)C2CCCN(S(=O)(=O)c3ccc(Br)s3)C2)cc1 (stereo not drawn)	2.51%
COc1cccc(C(=O)Nc2ccccc2C(=O)OCc2cc(=O)n3nc(C)sc3n2)c1	11.7%
CCOC(=O)c1cccc(NC(=O)c2cc3c(Cl)nc4ccc(C)cc4c3s2)c1	11.6%
CCc1ccc(NS(=O)(=O)c2ccc3[nH]cc(C(=O)NC4CCCC4)c(=O)c3c2)cc1	-16.8%
COc1ccc(-n2cc(-c3ccccc3)c3c(SC(C)C(C)=O)ncnc32)cc1 (stereo not drawn)	9.09%
CCc1ccc(NC(=O)c2cc3ccccn3n2)cc1	-9.96%
COc1ccc(-c2nnc(Nc3ccc(OCC(N)=O)cc3)c3ccccc23)cc1	1.45%
CCc1ccccc1OCCCCN1CCCCC1	active: 89.4%
O=C(CSc1nc(=O)[nH]c2c1CCCC2)Nc1cc(C(F)(F)F)ccc1Cl	2.32%
Cc1cc(C)c2c(CC(=O)Nc3nnc(C(C)C)s3)coc2c1	5%
O=C(CCN1CCN(c2ccccc2)CC1)Nc1ccccc1F	active: 71.4%
CCOC(=O)c1ccccc1NC(=O)CSc1ccc(-c2sc(-c3ccccc3)nc2C)nn1	-3.45%
COc1ccc(OC)c(-c2nc(Nc3ccccc3C)sc2CC(=O)O)c1	-4.58%
COc1ccc(C2C(C(=O)Nc3ccccc3)=C(C)Nc3nc(-c4ccccc4)nn32)cc1OC (stereo not drawn)	0.905%
Cc1cc(C)n(-c2nc3ccccc3nc2Nc2cccc(C(F)(F)F)c2)n1	3.94%
O=C1CCSC2(C(=O)N(Cc3ccc(F)cc3)c3ccccc32)N1c1ccccc1 (stereo not drawn)	-6.84%
CCOc1ccc(Nc2oc(/C=C/c3ccc(F)cc3)nc2C#N)cc1	5.67%

SMILES	inhibition
COc1ccc(CNc2nc3c(S(=O)(=O)c4ccccc4)nnn3c3ccc(Cl)cc23)cc1	-14.9%
Cc1ccc(NC(=O)C(=O)NCC(c2cccnc2)N2CCN(C)CC2)cc1C (stereo not drawn)	0.903%
Cc1ccc(OCC(=O)Nc2ccc(C(=O)OCc3cc(=O)n4nc(C5CC5)sc4n3)cc2)cc1	23.3%
COc1ccc(NC(=O)c2oc3c(c2C)-c2nn(Cc4c(F)cccc4Cl)cc2CC3)c(OC)c1	-20.5%
COc1cccc2cc(-c3nc4sc(C(=O)Nc5ccc(F)cc5F)c(C)c4c(=O)[nH]3)c(=O)oc12	9.55%
CCOC(=O)c1ccccc1NC(=O)N1CCN2CCCCC2C1 (stereo not drawn)	2.16%
COCc1cc(C)nc2sc3c(=O)n(-c4cc(C)ccc4C)nnc3c12	-19.5%
Cc1ccc(C)c(N2CCN(c3ncnc4onc(C)c34)CC2)c1	8.78%
COc1ccccc1CCNC(=O)Cc1c(C)c2ccc(O)cc2oc1=O	13.7%
COc1ccc(CCN(C)C2CCCN(C(=O)c3sccc3C)C2)cc1OC (stereo not drawn)	active: 57%
CCOC(=O)c1cc(OC(=O)c2cccc(C)c2)n(-c2ccccc2)n1	11.6%
COCc1cc(C)nc2sc3c(c12)NC(c1ccc(NC(C)=O)cc1)N(c1ccc(C)cc1)C3=O (stereo not drawn)	7.29%
COc1cccc(CNc2ncnc3onc(-c4ccc(F)cc4)c23)c1	-3.37%
COc1ccc(-c2cc(C(C)=O)c(C)n2CCC(=O)Nc2cc(C)ccc2OC)cc1	-5.72%
O=c1c2ccccc2n(Cc2cccc(Cl)c2)c(=O)n1CCc1ccccc1	5.99%
CCN(c1ccccc1)c1nnc(NC(=O)Nc2cccc(C(F)(F)F)c2)s1	3.37%
CC(=O)NCCc1nc2ccccc2n1CCCCOc1ccc(Cl)cc1	-8.62%
O=C(COc1ccccc1)OCC(=O)c1ccc(S(=O)(=O)N2CCCCC2)cc1	active: 30.9%
Cc1cc(F)ccc1Nc1nc2ccccc2n2nnnc12	10.2%
O=C(CSc1nc2cc3ccccc3cc2[nH]1)Nc1cccc(C(F)(F)F)c1	10.2%
CC(C)CCNC(=O)C(=O)Nc1c2c(nn1-c1ccccc1)CS(=O)(=O)C2	1.25%
N#Cc1c(NC(=O)/C=C/c2ccco2)sc2c1CCCC2	active: 57.3%
COc1ccccc1N1CCN(S(=O)(=O)c2ccc(-c3cc(C(F)(F)F)on3)s2)CC1	2.34%
CNS(=O)(=O)c1cn(CC(=O)Nc2ccc(OC)c(Cl)c2)cc1S(=O)(=O)NC	5.67%
Cc1cc(N2CCCCC2)nc2ccc(NC(=O)c3ccc(F)cc3)cc12	0.437%

SMILES	inhibition
COc1cccc(N2C(=O)C(CC(=O)Nc3cccc(F)c3)N(C(C)C)C2=O)c1 (stereo not drawn)	-12.3%
Cc1cccc(CC(=O)NC2CC(=O)N(c3cccc(F)c3)C2)c1 (stereo not drawn)	-8.33%
CCOC(=O)c1c(NC(=O)CSc2cn(CCNC(=O)c3ccc(OCC)cc3)c3ccccc23)sc2c1CCCC2	7.84%
COc1ccc(OC)c(NC(=O)C2CCN(S(=O)(=O)c3ccc(C)cc3)CC2)c1	-6.98%
CC(CNC(=O)Cn1ncc2c3ccccc3n(Cc3cccc(Cl)c3)c2c1=O)c1ccccc1 (stereo not drawn)	-0.821%
COCCNC(=O)CSc1nc(-c2ccc(F)cc2)[nH]c1-c1ccc(Cl)cc1	16.3%
CCOc1ccc(C(=O)Nc2ccc(S(=O)(=O)N(Cc3ccccc3)c3ccccc3)cc2)cc1	-13.8%
COc1ccc(OC)c(C2CC(=O)N(c3cccc(C)c3)C3=C2C(=O)OC3)c1 (stereo not drawn)	1.78%
O=C(COc1ccccc1)Nc1ccc(OCc2cc(=O)n3ccsc3n2)cc1	4.61%
CCN(CC)c1ccc(NC(=O)c2cnn3c(C(F)F)cc(-c4ccccc4)nc23)cc1	-9.23%
COc1ccc(Cl)cc1NC(=O)C1CCN(c2ncnc3c2nc2n3CCCCC2)CC1	22.1%
O=C(CCC(=O)N1Cc2ccccc2Oc2ncccc21)NCc1ccccc1Cl	2.52%
COc1ccc(C(c2c(O)cc(C)n(Cc3ccco3)c2=O)N2CCN(c3ccccc3)CC2)cc1 (stereo not drawn)	1.99%
CCCCN(C)CCNC(=O)C1CCN(c2nc3ccc(CC)cc3s2)CC1	-1.94%
CCCOc1ccc(-c2cccc(NS(=O)(=O)c3cc(OC)ccc3OC)c2)nn1	2.07%
COc1cccc(C(=O)NN2c3ccccc3CCc3ccccc32)c1	active: 50.7%
O=C(NCc1ccc(Cl)cc1)c1cnc2sc(N3CCCCCC3)nn2c1=O	4.6%
O=[N+]([O-])c1ccc(Sc2nnnn2-c2ccccc2)c(Cl)c1	active: 35.5%
CC1CCc2c(sc(NC(=O)c3ccccc3)c2C(=O)Nc2ccccc2)C1 (stereo not drawn)	0.952%
CCOC(=O)CSc1nc2ccc(NC(=O)COc3ccccc3)cc2s1	-1.75%
COc1ccc(OC)c(CNc2ncnc3onc(-c4ccc(Cl)cc4)c23)c1	-5.29%
Cc1ccccc1-n1nc(CO)c(C(=O)NCCc2ccccc2)n1	-12.6%
COc1cccc(NC(=O)C(=O)NCC(c2cccnc2)N2CCN(c3ccccc3)CC2)c1 (stereo not drawn)	-15.4%
CCOc1ccc(-c2cnc(NCc3cccc(Cl)c3)n2C)cc1	-3.91%
COc1ccc(CCNC(=O)Cn2c(=O)c3cccn3c3ccc(F)cc32)cc1OC	18.7%

SMILES	inhibition
COc1ccc(C(=O)CCC(=O)Nc2cccc(C(C)=O)c2)cc1	15.9%
Cc1c(Cl)cccc1NC(=S)NC1CCN(Cc2ccccc2)CC1	active: 85.3%
Cc1ccc(Nc2ccccc2)cc1	active: 40.5%
Cc1ccc(Cn2c(=O)n(Cc3ccc(Cl)cc3)c(=O)c3cccnc32)cc1	5.26%
CCOc1ccc(NC(=O)CSc2nnc(NC(=O)Nc3ccccc3)s2)cc1	-12.7%
Cc1nc2cc(-c3cccc(F)c3)nn2c(C)c1CCC(=O)NC1CCCCC1	-13.4%
COc1ccc(-c2nn(C)c3sc(C(=O)N4CCN(c5cc(Cl)ccc5C)CC4)cc23)cc1OC	-6.51%
O=C(c1ccc2c(c1)N(Cc1cccc(Cl)c1)C(=O)c1ccccc1S2(=O)=O)N1CCN(c2cccc(C(F)(F)F)c2)CC1	-2.04%
CCOc1ccc(-c2nonc2NC(=O)COc2ccc(C)c(C)c2)cc1OCC	6.82%
Cc1ccc(NC(=O)CN2C(=O)CCc3cc(S(=O)(=O)N4CCOCC4)ccc32)c(C)c1	18.7%
CCOc1ccc(CNC(=O)c2sc3nc(C)cc(C)c3c2-n2cccc2)cc1	10.8%
Cc1cc2oc(C(=O)Nc3nc(-c4ccccc4)ns3)c(C)c2cc1Cl	-10.3%
CN1CCN(C(CNC(=O)C(=O)Nc2ccc(F)cc2)c2cccnc2)CC1 (stereo not drawn)	-7%
CC(=O)c1ccc(NS(=O)(=O)c2ccc3[nH]c4c(c3c2)CCCCCC4)cc1	2.35%
CCC(CC)C(=O)N1CCc2cc(OC)c(OC)cc2C1COc1ccccc1OC (stereo not drawn)	28.2%
Cc1ccc(C)c(Cn2nnc(C(=O)NCc3ccccc3)c2N)c1	16.1%
CN1CCN(CCCN2c3ccccc3Sc3ccc(Cl)cc32)CC1	active: 78.7% and active: 78.4% and active: 71.9%
CCC(=O)N1CCc2cc(S(=O)(=O)CCC(=O)N3CCN(c4ccccc4F)CC3)ccc21	2.22%
Cc1ccc(CNC(=O)c2cc3sccc3n2Cc2ccc(F)cc2)cc1	6.99%
CCCCN1CCCc2cc(CN(CCCN3CCOCC3)C(=O)Nc3ccc(CC)cc3)ccc21	15.8%
CCOC(=O)c1c(-c2ccc(OC)c(OC)c2)csc1NC(=O)c1ccc(C)cc1	-3.42%
COc1ccc(-c2[nH]nc3oc(=O)cc(C)c23)cc1	active: 33.4%
O=C(O)c1cccc(NC(=O)c2cc3cc(Br)cc(Br)c3oc2=O)c1	-13.4%
